Patent US20020002179A1, “TERAZOSIN IN THE CHRONIC TREATMENT OF THE URINARY SYMPTOMS ASSOCIATED WITH BENIGN PROSTATIC HYPERPLASIA” (priority 1993, published 2002)

What was measured:
prostatism = conditions: background, early studies; cited from earlier work
[1] = test system: patients with urinary symptoms associated with BPH (prostatism); assay: Boyarsky Symptom Index scores in long-range multicenter open-label study of terazosin in prostatism; assay type: in vivo, human; conditions: for Irritative Symptom Score Mean Change: mean baseline 4.3
Procedure: Data from patients who have participated in the study up to two and one-half years are currently available.
. Patients with evidence of prostate cancer were excluded from the study.
The primary measures of efficacy in these studies were changes in the peak urine flow rate and urinary symptom scores on the Boyarsky Symptom Index. Peak flow rates and voided urine volumes were determined in the standing position, approximately twenty-four hours after dosing using a Dantec Urodyn 1000 uroflowmeter. A minimum voided urine volume of 125-150 mL was required for a valid urine flow rate determination. Peak flow rates and voided volumes were recorded electronically for each determination.
Obstructive urinary symptoms associated with BPH include urinary hesitancy, intermittency, terminal dribbling, impairment in the size and force of the urinary stream, and the sensation of incomplete emptying of the bladder. Irritative symptoms include daytime frequency of urination, nocturia, a sensation of urgency, and dysuria.
Prior to initiation of the clinical trials, experts in urology were consulted regarding what, in their estimation, would constitute a clinically meaningful change in symptom scores and peak flow rates. On the recommendation of these experts, a clinically important change in either variable was defined as a 30% improvement over baseline.

Row | SMILES | efficacy in prostatism (prostatism) | toxicity / side effects (prostatism) | Irritative Symptom Score Mean Change ([1]; 1 mo. treatment, 474 patients) | Obstructive Symptom Score Mean Change ([1]; 1 mo. treatment, 474 patients, mean baseline 6.1) | Total Symptom Score Mean Change ([1]; 1 mo. treatment, 474 patients, mean baseline 10.5) | Irritative Symptom Score Mean Change ([1]; 2 mo. treatment, 450 patients) | Obstructive Symptom Score Mean Change ([1]; 2 mo. treatment, 450 patients, mean baseline 6.2) | Total Symptom Score Mean Change ([1]; 2 mo. treatment, 450 patients, mean baseline 10.5) | Irritative Symptom Score Mean Change ([1]; 3 mo. treatment, 457 patients) | Obstructive Symptom Score Mean Change ([1]; 3 mo. treatment, 457 patients, mean baseline 6.1) | Total Symptom Score Mean Change ([1]; 3 mo. treatment, 457 patients, mean baseline 10.4) | Irritative Symptom Score Mean Change ([1]; 6 mo. treatment, 428 patients) | Obstructive Symptom Score Mean Change ([1]; 6 mo. treatment, 428 patients, mean baseline 6.1)
1 | COc1cc2nc(N3CCN(C(=O)c4ccco4)CC3)nc(N)c2cc1OC [prazosin] | efficacy comparable to that of phenoxybenzamine | fewer side effects | – | – | – | – | – | – | – | – | – | – | –
2 | COc1cc2nc(N3CCN(C(=O)C4CCCO4)CC3)nc(N)c2cc1OC (stereo not shown) [terazosin] | – | – | −0.5 | −1.5 | −2.1 | −0.9 | −2.3 | −3.2 | −1.1 | −3.0 | −4.1 | −1.2 | −3.3
